Measurements as given in article PMC4336329 (PLoS ONE, 2015).
Hit rate of the full screen: of about 310,000 compounds, about 2,200 (0.71%) showed an effect of 50% or more. Effects have a minus sign here. This is one part of the list.

These compounds were tested against human ether-à-go-go-related gene (hERG) potassium channel (human, UniProt Q12809) (assay: primary screen, population patch clamp on CHO cells stably expressing hERG).
Chain of human ether-à-go-go-related gene (hERG) potassium channel (Q12809 whole entry, looked up): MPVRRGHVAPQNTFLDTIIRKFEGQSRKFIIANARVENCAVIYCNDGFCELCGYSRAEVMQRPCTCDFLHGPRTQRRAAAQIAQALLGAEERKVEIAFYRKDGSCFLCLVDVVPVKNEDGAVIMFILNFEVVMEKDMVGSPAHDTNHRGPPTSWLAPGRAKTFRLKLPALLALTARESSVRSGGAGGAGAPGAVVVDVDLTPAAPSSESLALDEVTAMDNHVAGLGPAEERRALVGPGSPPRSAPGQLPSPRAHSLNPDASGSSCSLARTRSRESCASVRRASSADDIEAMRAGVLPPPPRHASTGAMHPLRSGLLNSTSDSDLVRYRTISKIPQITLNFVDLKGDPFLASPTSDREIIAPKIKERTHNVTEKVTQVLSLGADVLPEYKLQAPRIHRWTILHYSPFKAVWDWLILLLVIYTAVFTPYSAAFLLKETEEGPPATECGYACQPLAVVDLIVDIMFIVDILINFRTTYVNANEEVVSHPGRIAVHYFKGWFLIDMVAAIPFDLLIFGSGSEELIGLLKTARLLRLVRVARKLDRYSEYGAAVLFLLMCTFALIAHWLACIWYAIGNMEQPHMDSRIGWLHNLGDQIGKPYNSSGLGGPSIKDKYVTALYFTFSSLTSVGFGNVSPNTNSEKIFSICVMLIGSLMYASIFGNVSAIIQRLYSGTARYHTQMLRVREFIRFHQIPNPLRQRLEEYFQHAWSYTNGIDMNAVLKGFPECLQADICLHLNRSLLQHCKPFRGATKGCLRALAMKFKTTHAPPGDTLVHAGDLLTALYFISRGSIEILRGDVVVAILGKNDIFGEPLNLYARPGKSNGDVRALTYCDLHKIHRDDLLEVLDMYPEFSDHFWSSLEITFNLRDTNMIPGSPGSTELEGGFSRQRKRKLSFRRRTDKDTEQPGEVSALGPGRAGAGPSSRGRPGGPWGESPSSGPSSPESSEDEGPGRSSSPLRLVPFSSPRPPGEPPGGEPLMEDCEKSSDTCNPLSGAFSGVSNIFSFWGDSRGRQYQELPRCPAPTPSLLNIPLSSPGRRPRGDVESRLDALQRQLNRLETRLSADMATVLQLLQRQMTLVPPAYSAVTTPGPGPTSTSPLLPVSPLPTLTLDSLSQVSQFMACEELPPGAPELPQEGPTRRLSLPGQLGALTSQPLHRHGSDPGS

First: Cc1ccc(CNC(=O)CS(=O)Cc2nc(-c3cccs3)oc2C)cc1 (centres unmarked)
Second: Cc1ccc(CNS(=O)(=O)c2ccc3c(c2)OCCO3)cc1
The “hERG current change (%, negative = inhibition) at 1uM” value of the first is lower: -5.04% for the first, 1.33% for the second.

Going from `C=CCn1c(-c2cccs2)nc2ccccc21` to `O=C(N=Nc1c(O)[nH]c2ccccc12)c1cccs1`, the “hERG current change (%, negative = inhibition) at 1uM” value rises from 7.05% to 14.7%.

Going from `O=C(Nc1ccccc1)OCc1ccccn1` to `O=C(O)C1CC(O)CN1C(=S)Nc1ccccc1` (centres unmarked), the “hERG current change (%, negative = inhibition) at 1uM” value rises from 6.46% to 11.7%.

First: Cc1cccc(OCc2nnc(SC(C)C(=O)O)n2Cc2ccccc2)c1 (centres unmarked)
Second: COC(=O)c1cc(-c2cc(OC)ccc2OC)nc2c1c(=O)n(C)c(=O)n2Cc1ccccc1
The “hERG current change (%, negative = inhibition) at 1uM” value of the first is lower: 11.4% for the first, 20.5% for the second.

First: COc1ccccc1CN1C(=O)[C@@H]2C(CC(N)=O)NC3(C(=O)Nc4c3ccc(Cl)c4C)[C@@H]2C1=O (some centres unmarked)
Second: COc1ccc(CCNC(=O)C(=O)c2c[nH]c3ccccc23)cc1OC
The “hERG current change (%, negative = inhibition) at 1uM” value of the first is lower: -1.13% for the first, 9.47% for the second.

Going from `COC(=O)c1ccc(CSc2nc3ccccc3c(=O)n2-c2cccc(OC)c2)o1` to `CCSc1nc2ccccc2c(=O)n1Cc1ccc(F)cc1`, the “hERG current change (%, negative = inhibition) at 1uM” value rises from 6.56% to 13.1%.

Going from `O=C(/C=C/c1ccccc1)N(Cc1cccs1)C1CCS(=O)(=O)C1` (centres unmarked) to `COc1ccc(N2C(=NC(=O)CCCc3ccccc3)SC3CS(=O)(=O)CC32)cc1` (centres unmarked), the “hERG current change (%, negative = inhibition) at 1uM” value rises from 1.96% to 13%.

Going from `Cc1ccc(OCc2nnc(SCC(=O)N3c4ccccc4Sc4ccc(Cl)cc43)o2)cc1` to `CCOC(=O)CCSc1nnc(-c2cccnc2)n1-c1ccccc1OC`, the “hERG current change (%, negative = inhibition) at 1uM” value rises from -0.619% to 7.5%.

First: CC(C)CNC(=O)C1CCCN1S(=O)(=O)c1ccc(Cl)cc1 (centres unmarked)
Second: Cc1ccc(N(CC(=O)NCC2CCCO2)S(C)(=O)=O)cc1Cl (centres unmarked)
The “hERG current change (%, negative = inhibition) at 1uM” value of the first is lower: 10.6% for the first, 14.4% for the second.

First: O=C(CSc1nnnn1-c1ccc2c(c1)OCO2)NCc1ccccc1
Second: CCN(CC(=O)Nc1c(F)cccc1F)C(=O)c1ccc2c(c1)OCCO2
The “hERG current change (%, negative = inhibition) at 1uM” value of the first is higher: 9.19% for the first, 4.93% for the second.

Going from `COc1cccc(C(O)CC(N)=O)c1` (centres unmarked) to `COc1cc(NC(=O)c2ccc(Br)o2)c(C(=O)O)cc1OC`, the “hERG current change (%, negative = inhibition) at 1uM” value falls from 15.9% to 15.5%.

Going from `CN(Cc1nccs1)C(=O)c1cc(COc2cccc3cnccc23)on1` to `COc1ccc(-c2csc(-c3cccnc3)n2)cc1C`, the “hERG current change (%, negative = inhibition) at 1uM” value falls from 11.2% to 8.38%.

Compared with `COc1ccc(NC(=O)CN(C)CC(=O)Nc2ccc(Cl)cc2F)cc1`, `COC(=O)c1cc(NC(=O)c2cc(-c3ccc(OC)cc3)oc2C(F)(F)F)ccc1N1CCOCC1` is lower in “hERG current change (%, negative = inhibition) at 1uM” value: 0.116% for the first, -7.46% for the second.

First: CCCCCC(=O)O[C@]1(C(C)=O)CC[C@H]2[C@@H]3CCC4=CC(=O)CC[C@]4(C)[C@H]3CC[C@@]21C
Second: Cc1cccc(CN2CCC(N3CC(C)OC(C)C3)CC2)c1.O=C(O)C(=O)O (centres unmarked)
The “hERG current change (%, negative = inhibition) at 1uM” value of the first is lower: 16% for the first, 19.7% for the second.

Compared with `C=C(C)C1CC=C(C)/C(=N/NC(=O)c2ccoc2C)C1` (centres unmarked), `Cc1cc(C(=O)C(=O)N(C)C)c(C)n1-c1ccc(Cl)c(Cl)c1` is lower in “hERG current change (%, negative = inhibition) at 1uM” value: 9.13% for the first, 3.71% for the second.

Compared with `CC(Cc1ccc(O)c(O)c1)C(C)Cc1ccc(O)c(O)c1` (centres unmarked), `CCOC(=O)/C(C#N)=C/c1ccc(OCC(=O)Nc2cc(C)ccc2C)c(OC)c1` is lower in “hERG current change (%, negative = inhibition) at 1uM” value: 13.9% for the first, 13.7% for the second.

First: O=C(Nc1cc(C(F)(F)F)ccc1Cl)c1ccncc1
Second: CC1CN(S(=O)(=O)c2ccc(Cl)c(C(F)(F)F)c2)CC(C)O1 (centres unmarked)
The “hERG current change (%, negative = inhibition) at 1uM” value of the first is lower: 6.79% for the first, 7.77% for the second.

Compared with `Cc1ccc2c(c1)nc(NCCO)n2C.Cl`, `CCOC(=O)Nc1sc2nc(C)cc(C)c2c1-n1cccc1` is higher in “hERG current change (%, negative = inhibition) at 1uM” value: 7.82% for the first, 10.6% for the second.

Compared with `CCOC(=O)c1c(NC(=O)Cn2nnc(-c3ccccc3Cl)n2)sc(C)c1C`, `CCOC(=O)c1c(C)[nH]c(N=Nc2ccccc2C)c1C` is higher in “hERG current change (%, negative = inhibition) at 1uM” value: -3.72% for the first, 13% for the second.

Going from `C[n+]1c(-c2ccccc2)cc(-c2ccc(Cl)cc2)cc1-c1ccccc1.[O-][Cl+3]([O-])([O-])[O-]` to `Cn1c(=O)n(Cc2ccccc2)c(=O)c2c1nc(NCC1CCCO1)n2Cc1ccccc1` (centres unmarked), the “hERG current change (%, negative = inhibition) at 1uM” value rises from -35.3% to 3.58%.

First: CC(=O)c1ccc(Nc2c3c(nc4ccccc24)CCCC3)cc1
Second: COc1cc(-c2cc(C(=O)NCc3ccc(S(N)(=O)=O)cc3)c3ccccc3n2)cc(OC)c1OC
The “hERG current change (%, negative = inhibition) at 1uM” value of the first is lower: -7.14% for the first, 14.7% for the second.

Going from `CC(C)CCN1CC(=O)N2[C@@H](Cc3c([nH]c4ccccc34)C2(C)C)C1=O` to `CC1Cc2ccccc2N1C(=O)Cn1cnc2c1c(=O)n(C)c(=O)n2C` (centres unmarked), the “hERG current change (%, negative = inhibition) at 1uM” value rises from 8.51% to 15.1%.

First: CN1Cc2cc(C(=O)c3cc(Cl)cc(CSc4ncccn4)c3O)cnc2NC1=O
Second: COc1ccc(-n2c(=S)[nH]c3cc(C(=O)NCc4ccc(F)cc4)ccc3c2=O)c(OC)c1
The “hERG current change (%, negative = inhibition) at 1uM” value of the first is lower: 0.725% for the first, 13.1% for the second.

Compared with `CCn1c(SCC(=O)NC(C)(C)C)nnc1-c1ccccn1`, `Cc1nc2ccc(NC(=O)COc3ccccc3[N+](=O)[O-])cc2s1` is higher in “hERG current change (%, negative = inhibition) at 1uM” value: 10.9% for the first, 15.3% for the second.

Going from `COc1ccc(S(=O)(=O)N2CCN(CC(O)COc3ccc(CC#N)cc3)CC2)cc1OC` (centres unmarked) to `CCOC(=O)Cc1[nH]nc2c1C(c1cc(OC)ccc1OC)C(C#N)=C(N)O2` (centres unmarked), the “hERG current change (%, negative = inhibition) at 1uM” value rises from 10.5% to 14.9%.

Compared with `Nc1nc(Sc2ccc([N+](=O)[O-])cc2[N+](=O)[O-])n[nH]1`, `O=[N+]([O-])c1cc(F)c(N2CCCC2)cc1Br` is higher in “hERG current change (%, negative = inhibition) at 1uM” value: 14.5% for the first, 15.1% for the second.

First: CSc1ccccc1NC(=O)NCCCl
Second: Cc1c(NC(=O)C(C)OC(=O)CNC(=O)c2ccccc2)c(=O)n(-c2ccccc2)n1C (centres unmarked)
The “hERG current change (%, negative = inhibition) at 1uM” value of the first is higher: 11% for the first, -4.79% for the second.

First: COc1ccc(NC(=S)N(CCc2c(C)[nH]c3ccccc23)Cc2ccco2)cc1
Second: CCCCCCCC(=O)NNC(=O)CCC(=O)O
The “hERG current change (%, negative = inhibition) at 1uM” value of the first is lower: 9.71% for the first, 11.6% for the second.
